Hit rate of the full screen: of about 340,000 compounds, about 6,900 (2%) were called active. Cut-off read from the data, not from the text of the source: active = inhibition above about 30%; inactive = below that, where a call was filed. Only a part is listed here, and it is no random draw. Entries without a call were filed so in the source.

UniProt P14416, sequence (P14416 whole entry, looked up): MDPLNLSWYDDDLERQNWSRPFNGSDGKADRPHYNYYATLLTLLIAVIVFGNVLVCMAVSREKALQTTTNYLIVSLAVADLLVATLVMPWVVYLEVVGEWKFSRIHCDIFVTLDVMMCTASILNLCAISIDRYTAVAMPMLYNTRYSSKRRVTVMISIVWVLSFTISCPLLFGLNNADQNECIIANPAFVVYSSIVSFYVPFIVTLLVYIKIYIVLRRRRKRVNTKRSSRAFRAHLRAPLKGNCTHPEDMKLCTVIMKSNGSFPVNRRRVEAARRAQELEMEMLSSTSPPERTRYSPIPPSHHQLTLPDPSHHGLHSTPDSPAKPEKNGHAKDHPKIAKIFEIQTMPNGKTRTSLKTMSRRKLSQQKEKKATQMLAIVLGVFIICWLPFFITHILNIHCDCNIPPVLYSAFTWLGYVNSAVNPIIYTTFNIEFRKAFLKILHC

The test has as its target D(2) dopamine receptor (Homo sapiens) (UniProt P14416). Put plainly: HTS Assay for Allosteric Antagonists of the Human D2 Dopamine Receptor: Primary Screen for Antagonists. Note: 0% is about no effect. As to conditions: HEK293 TREx D2 cells, calcium flux, dopamine EC80; at 10 µM; stronger effect = higher value. Summed up:
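Measurement of antagonist activity uses fluorescent calcium dye in inducible HEK293 T-REx D2 cells: 10 s baseline, compound addition with 180 s read, EC80 dopamine addition with a further 180 s read.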
A general note: Calcium flux is commonly read through the fluorescence of an indicator in the cells.
By inhibition is commonly meant the relative decrease from the control value, in per cent. For `Cc1cccc(NC(=O)CCc2c(C)nc3c(c(C)nn3C(C)(C)C)c2C)c1C`, the inhibition was -8.08%. Regarding `CC1CCc2c(sc3nnn(CC(=O)Nc4ccc(Cl)cc4)c(=O)c23)C1` (stereo not drawn), the inhibition is -1.39%.

For the molecule `Cc1ccc(N2CCN(S(=O)(=O)c3ccc4[nH]c5c(c4c3)CCCCC5)CC2)c(C)c1`, the inhibition was 12%. As to `CCN(C(=O)c1cn(CC)c(=O)c2cc(OC)c(OC)cc12)c1ccc(C)c(C)c1`, the inhibition stood at 13.2%. Take `COc1ccc(CNC(=O)c2cnc(N3CCOCC3)c3ccccc23)cc1`: the inhibition is -3.84%. Turning to `Cc1ccc(Cl)cc1N1CCN(C(=O)c2cc3c(-c4ccccc4F)nn(C)c3s2)CC1`, the inhibition was -0.372%. As to `CCc1ccc2oc(-c3cc(NC(=O)c4cc([N+](=O)[O-])ccc4N4CCOCC4)ccc3Cl)nc2c1`, the inhibition came to 3.14%. For `CCCN(CCC)C(=O)Cn1c(=O)n(-c2ccc(Cl)cc2)c(=O)c2c3c(sc21)CCCC3`, the inhibition was -6.29%. For `COc1ccc(NC(=O)CSc2nc(-c3ccco3)cc(C(F)(F)F)n2)cc1Cl`, the inhibition was found to be 16.4%. The figure for `Fc1ccc(-c2cn3cc(Cc4ccccc4)sc3n2)cc1` is 9.37%; for `CCCCS(=O)(=O)c1nc(-c2ccc(Br)cc2)cc(-c2ccccc2)c1C#N` it is 3.65%; for `Cc1oc(-c2cccc(Cl)c2)nc1Cn1c(SCc2ccccc2F)nc2ccncc21` it is 13.3%. In the case of `Cc1cc(C)cc(NC(=O)Cn2c(C(F)(F)F)nc3ccccc32)c1`, the inhibition is -6.2%. The value for `Cc1ccccc1NC(=O)CSc1nnc(-c2cccs2)o1` was 17.1%; that for `CC(=O)N1CCc2cc(C(=O)CN3CCN(c4cccc(Cl)c4)CC3)ccc21` was active: 73%; that for `COc1ccccc1NC(=O)CSC1=Nc2ccccc2C2=NC(CC(=O)NCc3cccs3)C(=O)N12` (stereo not drawn) was 0.197%.

With `COc1ccc(CCNC(=O)c2ccc3c(c2)N(Cc2ccccc2C)C(=O)c2ccccc2S3)cc1OC`, the inhibition was -9.16%.

In the case of `Cc1nn(CC(=O)N2CCN(c3cccc(C(F)(F)F)c3)CC2)c(=O)c2cccn12`, the inhibition was 4.91%.

Turning to `Cc1nn(C)c2c1c(C(F)(F)F)cc(=O)n2C(C)C(=O)NCc1ccccc1Cl` (stereo not drawn), the inhibition is 2.6%.

In the case of `Cc1cc(NC(=O)c2cc(-c3cccs3)nc3ccccc23)no1`, the inhibition was active: 37.3%.

For the molecule `COc1ccc(CNC(=O)c2ccc(CNS(=O)(=O)c3ccc(F)cc3)cc2)cc1`, the inhibition is -10.2%. Consider `CCOc1ccc(OCC)c(NC(=O)Nc2ccc3c(c2)N(C)C(=O)CS3)c1`, for which the inhibition is active: 64.2%. Turning to `COC(=O)c1sccc1S(=O)(=O)N(CC(=O)NCc1ccc(F)cc1)c1ccc(Cl)cc1`, the inhibition was found to be 18.8%. As for `Cc1ccc(NC(=O)Cn2nnc(C(=O)NCc3cccs3)c2N)cc1Cl`, the inhibition is 5.05%. Consider `COc1ccc(Cn2nnc3c(=O)[nH]c(C4CCN(C(=O)c5ccc(C)cc5)CC4)nc32)cc1OC`, for which the inhibition is -2.04%. Take `COc1ccc(NC(=O)Cn2c(=O)n(Cc3ccc(C(=O)NCc4ccccc4Cl)cc3)c(=O)c3ccccc32)cc1`: the inhibition stood at 15.3%.

As to `O=C(CCN1CCN(c2ccc(F)cc2)CC1)Nc1ccccc1F`, the inhibition is active: 65.4%. The figure for `Cc1cc(F)ccc1NC(=O)Cn1c(=O)ccc2cc(S(=O)(=O)N3CCC(C)CC3)ccc21` is -18.9%; for `CCN(CC)CCCNC(=O)CN1N=C(c2ccccc2)CCC1=O` it is 10.1%. The value for `Cc1ccc(NC(=O)C2CCCN2S(=O)(=O)c2ccc3c(c2)CCCC(=O)N3)cc1Cl` (stereo not drawn) was 6.34%. With `Cc1cccc(NC(=O)CSc2nc3ccc(NC(=O)COc4ccccc4F)cc3s2)c1`, the inhibition came out at 1.25%. Regarding `Cc1ccc(NC(=O)C(C)[n+]2ccccc2)cc1[N+](=O)[O-]` (stereo not drawn), the inhibition was active: 59.9%. On to `O=C(CSc1ccc2nc(-c3ccccc3)cn2n1)Nc1cccc(F)c1`, for which the inhibition was -8.08%. On to `COc1ccc(NC(=O)c2c(NC(=O)Cc3ccccc3)sc3c2CCCC3)cc1`, for which the inhibition is -11.3%. Consider `O=C1CC(N2CCN(c3ccccc3)CC2)C(=O)N1c1ccc2c(c1)OCCO2` (stereo not drawn), for which the inhibition is active: 37.9%. The value for `CC1=C(C(=O)Nc2ccc(Cl)cc2)C(c2ccc(C(F)(F)F)cc2)n2nnnc2N1` (stereo not drawn) was -12.3%; that for `CCOC(=O)c1c(C)sc(-c2c(-c3ccc(OC)c(F)c3)[nH]c3[nH]c(=O)[nH]c(=O)c23)c1O` was -5.06%. For the molecule `COC(=O)c1cnn(-c2ccc(C(=O)Nc3cc(OC)c(OC)c(OC)c3)cc2)c1N`, the inhibition is -6.61%. Consider `COc1ccc(-c2nc(SCC(=O)N3CCCCC3C)n[nH]2)cc1` (stereo not drawn), for which the inhibition is -9.33%. For `CCc1cccc(C)c1Nc1c(-c2cccc(O)c2)nc2nc(C)cc(C)n12`, the inhibition was -12.1%. For `Cc1ccc(CN(Cc2ccco2)C(=O)c2ccc(Cl)cc2)o1`, the inhibition turned out to be 23.6%. As to `CCc1ccc(-n2c(=O)c3c(C)c(C(=O)N(C)C)sc3n(Cc3ccccc3C#N)c2=O)cc1`, the inhibition came to 8.47%. In the case of `CCc1ccccc1NC(=O)CSc1ncc(S(=O)(=O)c2ccc(C(C)C)cc2)c(N)n1`, the inhibition is -19.2%. On to `COc1ccc(NC(=O)CSc2nccn2Cc2ccco2)c(OC)c1`, for which the inhibition turned out to be 4.25%. In the case of `CCC1CCCCN1C(=O)Cn1c(=O)cc(C(F)(F)F)c2c(C)nn(C)c21` (stereo not drawn), the inhibition is -2.85%.

Consider `O=C1c2[nH]nc(-c3ccccc3O)c2C(c2ccc(F)cc2)N1CCO` (stereo not drawn), for which the inhibition worked out at 2.2%. The figure for `COc1ccc(OC)c(NC(=O)Cc2c(C(=O)O)n(C)c3ccc(C)cc23)c1` is -18.9%. The value for `COc1ccc(Cl)cc1NS(=O)(=O)c1cccc(C(=O)NCC(c2ccco2)N2CCCC2)c1` (stereo not drawn) was active: 38.5%. As for `CCOCCCNC(=O)c1c(NC(=O)Cc2coc3ccc(C)cc23)sc2c1CCC2`, the inhibition was determined as 5.04%. In the case of `O=S(=O)(c1cccc(F)c1)N1CCC(Oc2ccc(-n3cnnn3)cc2)CC1`, the inhibition is -18.2%. `CCc1ccc(S(=O)(=O)c2c(C(=O)c3ccccc3)cnc3ccc(CC)cc23)cc1`: the inhibition came out at 23%. The value for `COc1ccccc1CN1CCC(CNC(=O)c2cnn(-c3ccc(Cl)cc3)c2C2CCN(C(=O)OC(C)(C)C)CC2)CC1` was -7.75%; that for `CC(C)c1ccc(OCC(O)CN2CCN(c3ccc(F)cc3)CC2)cc1` (stereo not drawn) was -13.1%; that for `CCCCNS(=O)(=O)c1ccc2nc(-c3cccnc3)cc(C(=O)NCCOC)c2c1` was 11.9%. In the case of `Cc1ccccc1NC(=O)c1ccc(Cl)c(S(=O)(=O)N2CCCCCC2)c1`, the inhibition stood at 3.11%.

In the case of `O=C(NCCCc1nc2ccccc2n1Cc1ccc(Cl)cc1Cl)c1ccco1`, the inhibition came out at 7.77%.

Consider `COc1cc(Cl)c(C)cc1NC(=O)Cn1ncc2c3ccccc3n(Cc3ccccc3)c2c1=O`, for which the inhibition was -4.7%. As to `CCc1ccc(CNC(=O)c2c(C)oc3ncn(CC(C)C)c(=O)c23)cc1`, the inhibition was -9.31%. Take `COc1ccc(CNC(=O)CCCn2c(=O)c3cccn3c3cccnc32)cc1`: the inhibition turned out to be 13.8%. As for `CCN(CC)CCCNC(=O)CN1N=C(c2ccc(OC)cc2)CCC1=O`, the inhibition was 24.4%. The value for `CCOCCCN(Cc1ccco1)C(=O)c1cc2c(=O)[nH]c3ccc(C)cc3c2s1` was 3.89%; that for `COCCNC(=O)Cn1c(=O)n(CCCCCC(=O)Nc2ccccc2)c(=O)c2sccc21` was 8.44%; that for `O=S(=O)(c1ccccc1)c1nnn2c1nc(NCc1ccccc1)c1sccc12` was -10.6%. For `COc1cccc(NC(=O)c2cnc(SCC(=O)N3CCOCC3)n(C)c2=O)c1`, the inhibition was determined as 20.6%. Take `Cc1ccc(Cl)cc1N1CCN(C(=O)CN2C(=O)CSc3c2c(C)nn3-c2ccccc2)CC1`: the inhibition was determined as 1.75%.

`O=C(NCc1cccs1)c1ccc(Cn2c(SCc3ccc(F)cc3)nc3cccnc32)cc1`: the inhibition is -11.3%. In the case of `COc1ccc(-c2cn3c(n2)sc2cc(C(=O)NCCc4ccc(OC)cc4OC)ccc23)cc1`, the inhibition turned out to be 25.2%.

As for `CCc1ccc2c(c1)-c1ccccc1S(=O)(=O)N2CC(=O)N1CCCCC1`, the inhibition was found to be 2.34%. Regarding `CCCCN(C)CCCNC(=O)Cn1ncc2c3ccccc3n(Cc3cc(C)ccc3C)c2c1=O`, the inhibition is -3.53%. With `CCN(CC)CCCNC(=O)c1nn(-c2ccc(C)cc2)c(=O)c2c1c1ccccc1n2C`, the inhibition was determined as 18.1%. Turning to `CCN(Cc1ccccc1)C(=O)c1sc2nc3n(c(=O)c2c1C)CCCC3`, the inhibition was -6.8%. Take `CCOc1ccc(CNS(=O)(=O)c2ccc(-c3coc(C)n3)cc2)cc1OC`: the inhibition is 8.58%. Take `O=C(CN1CCN(c2ccccc2O)CC1)Nc1ccc2c(c1)CCC2`: the inhibition is active: 66.8%.

For `COc1ccccc1CNC(=O)c1cc2c(s1)-c1ccccc1OC2`, the inhibition was determined as 17.4%. The value for `CCC(=O)N1c2ccc(S(=O)(=O)CCC(=O)Nc3ccc(Br)c(C)c3)cc2CC1C` (stereo not drawn) was 2.27%; that for `CCCn1c(CCCNC(=O)c2ccccc2OC)nc2ccccc21` was 9.49%; that for `CCOC(=O)C1CCCN(C(=O)c2nn(-c3ccc(C)cc3)c(=O)c3c2c2ccccc2n3C)C1` (stereo not drawn) was 0.375%.

Regarding `O=C(/C=C\c1ccccc1)NC1CC(=O)N(c2ccccc2)C1` (stereo not drawn), the inhibition is -9.93%. With `Cc1cc(C)c2c(n1)sc1c(=O)n(-c3cc(Cl)ccc3C)nnc12`, the inhibition stood at 11.7%.

Take `COC(=O)c1ccccc1NC(=O)Cn1c(=O)n(-c2cccc(C(F)(F)F)c2)c(=O)c2c(C)c(C)sc21`: the inhibition was -17.2%. In the case of `CCN(CC)S(=O)(=O)c1ccc2oc(C(=O)NCc3ccccc3OC)c(C)c2c1`, the inhibition is -5.46%.

Turning to `Cc1ccc(S(=O)(=O)NCC2CCC(C(=O)NCCc3ccc(Cl)cc3)CC2)cc1` (stereo not drawn), the inhibition was -13.9%. On to `Cc1ccc(C)c(N2CCN(C(=O)c3cc(S(=O)(=O)N4CCCCCC4)cn3C)CC2)c1`, for which the inhibition worked out at 1.55%.

Regarding `COCCCNC(=O)c1ccc(Cn2c(SCc3cccc(C)c3)nc3cccnc32)cc1`, the inhibition is -1%. In the case of `COc1cc(/C=C/c2nc(C#N)c(NC3CCCCC3)o2)cc(OC)c1OC`, the inhibition is -0.0581%. The value for `COc1ccc(-n2ccnc(NCCc3ccc(S(N)(=O)=O)cc3)c2=O)cc1` was 7.81%. Take `O=C(/C=C/c1cn(CC(O)CN2CCCCCC2)c2ccccc12)c1ccccc1` (stereo not drawn): the inhibition was -24.5%.

In the case of `Cc1ccc(CNc2nc3c(S(=O)(=O)c4ccccc4)nnn3c3ccsc23)cc1`, the inhibition was -0.553%. The figure for `COc1ccc(N2C(=O)C(CC(=O)Nc3ccccc3)N(Cc3ccc4c(c3)OCO4)C2=O)cc1` (stereo not drawn) is active: 43%; for `COc1ccccc1N1CCN(CCCCN2C(=O)C3CCCCN3C2=O)CC1` (stereo not drawn) it is active: 94.3%; for `COc1ccc(-c2nn(C)c3sc(C(=O)N4CCN(c5cccc(C)c5C)CC4)cc23)cc1OC` it is -4.76%.

Turning to `O=C(CCCn1c(=O)c2cccn2c2cccnc21)NCCc1ccc(Cl)cc1`, the inhibition is -2.06%. As to `COc1ccc(CN2C(=O)C(NC(=O)c3ccc(C)cc3)(C(F)(F)F)N=C2c2ccccc2)cc1` (stereo not drawn), the inhibition is -2.1%.

These data come from PubChem BioAssay AID485344 (National Center for Advancing Translational Sciences (NCATS), 2010).
